Source: PubChem BioAssay AID686978 (National Center for Advancing Translational Sciences (NCATS), 2013)
Out of some 420,000 compounds screened, about 64,000 (15%) were called active. This list was built around the results that the source calls inconclusive (neither active nor inactive); the mix of calls is not that of the screen. Calls follow the shape of the dose curve; as a rule, active = well fitted inhibition curve with a large enough effect; inconclusive = small, poorly fitted or top-dose-only effect; inactive = flat fitted curve, though single readings scatter. Potencies of inconclusive entries are left out as doubtful fits.

Assay: qHTS for Inhibitors of human tyrosyl-DNA phosphodiesterase 1 (TDP1): qHTS in cells in absence of CPT; also: nearly all actives have a fitted effect of over 55% in size
Details: DT40 Tdp1-/- hTDP1 cells, no CPT, ATP luminescence, 48 h; activity change, negative = growth inhibition: at 46.2 µM (top of the series) unless noted
Method in brief: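 No-CPT arm: Tdp1-/-;hTDP1 DT40 cells (400/well) plus compounds, incubated ≥48 hr at 37 °C. Readout CellTiter-Glo luminescence.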
% is scaled to controls: 0 for no effect and ±100 for the full control effect; potency is read from the fitted curve at half-maximal effect; tags tell the direction and shape of the fitted curve.

**Q.** For `COc1cc(/C=N/Nc2ccc(Cl)c(C(=O)O)c2)ccc1OC(=O)c1ccccc1F`, which “activity change, negative = growth inhibition” value is on record?
**A.** Its value is inactive: 18.4%.

**Q.** With `CCOC(=O)N1CCc2c(sc3c2c(=O)n(CCc2ccccc2)c(=O)n3CC(=O)Nc2cccc(C)c2)C1` as the compound, how does the Potency read?
**A.** The Potency was inconclusive [inhibitor, partial curve, poor fit].

**Q.** With `COc1cc(=O)n2c(c1C(=O)N(C)Cc1cscn1)CCN(Cc1c(C)[nH]c3ccccc13)CC2` as the compound, how does the Potency read?
**A.** The Potency was inconclusive [inhibitor, single point].

**Q.** With `Cc1nc(C)c(C(=O)O)s1` as the compound, how does the “activity change, negative = growth inhibition” value read?
**A.** The value was inactive: 7.36%.

**Q.** Which “activity change, negative = growth inhibition” value does the source give for `COc1ccc(/C=N\NS(=O)(=O)c2ccc(Cl)cc2)cc1COc1ccccc1[N+](=O)[O-]` here?
**A.** The value was inactive: -21.1%.

**Q.** Which Potency does the source give for `COCC(=O)N(CCc1ccc(OC)c(OC)c1)Cc1cc2cc(C)ccc2nc1Cl` here?
**A.** Its Potency is inconclusive [inhibitor, single point].

**Q.** With `C[C@H](CO)N1C[C@H](C)[C@@H](CN(C)C(=O)c2cc(-c3ccccc3)on2)OCc2cn(nn2)CCCC1=O` as the compound, how does the “activity change, negative = growth inhibition” value read?
**A.** The value was inactive: 13.1%.

**Q.** Which Potency does the source give for `COc1ccc(C)cc1NC(=O)CNC(C)C(=O)Nc1cc(Cl)ccc1Cl` (stereo not drawn) here?
**A.** Its Potency is inconclusive [inhibitor, single point].

**Q.** For `CC(C)Oc1ccccc1C1Nc2ccccc2C(=O)N1c1ccc2c(c1)OCCO2` (stereo not drawn), which Potency is on record?
**A.** Its Potency is inconclusive [inhibitor, single point].

**Q.** With `Cc1c(C(=O)Nc2ccncc2)oc2c1C(=O)CC(C)(C)C2` as the compound, how does the Potency read?
**A.** Its Potency is inconclusive [inhibitor, single point].

**Q.** With `Nc1c2c(nc3sc4c(c13)CCCC4)CCCCCC2` as the compound, how does the Potency read?
**A.** The Potency was active: 13 µM.

**Q.** Which Potency does the source give for `COc1ccc(/C=N/NC(=S)Nc2ccccc2)cc1COc1cccc(C)c1C` here?
**A.** Its Potency is inconclusive [inhibitor, single point].

**Q.** With `O=C(Nc1ccccc1)c1nc(S(=O)(=O)Cc2ccccc2F)ncc1Cl` as the compound, how does the Potency read?
**A.** The Potency was active: 1.12 µM.

**Q.** For `COc1ccc(OC)c(-c2csc(NC(=O)C3CSC4(C)CCC(=O)N34)n2)c1` (stereo not drawn), which Potency is on record?
**A.** The Potency was inconclusive [inhibitor, single point].

**Q.** With `Cc1ccccc1C(=O)N=c1ccn(-c2nc3ccccc3nc2NS(=O)(=O)c2ccc(F)cc2)cc1` as the compound, how does the Potency read?
**A.** The Potency was inconclusive [inhibitor, single point].

**Q.** Which Potency does the source give for `CC(=O)c1ccc(OCC(O)CN(C)CCOc2ccc(Br)cc2)cc1` (stereo not drawn) here?
**A.** The Potency was inconclusive [inhibitor, single point].

**Q.** For `CNC(=O)C1CCN(S(=O)(=O)c2c(C)noc2/C=C/N(C)C)CC1`, which Potency is on record?
**A.** The Potency was inconclusive [inhibitor, single point].

**Q.** For `COCc1ccc(C(=O)N2CCCC(N(C)CCc3ccccc3)C2)s1` (stereo not drawn), which Potency is on record?
**A.** Its Potency is inconclusive [inhibitor, partial curve].
